Test results: publication PMC12040169 (PLOS Biology, 2025)
The list shows a part of the results.

Each compound was assayed on T1, C. trachomatis L2/434/Bu expressing GFP (CTL2-GFP). Conditions: total inclusion area; 28.5 h, 10 µM; inhibitor.
T1 construct: L2/434/Bu GFP intracellular growth in HeLa cells
Set-up: species or system HeLa; C. trachomatis total inclusion area by high-content imaging, normalised to DMSO
Outline: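 Post-fluorescence-read fixation, DNA staining with Hoechst and high-content imaging; GFP inclusion area and number per well, and nuclei counts, used as proxies for bacterial growth and host viability.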

Structure (SMILES)	% of control remaining
COC(=O)CCc1ccc(S(=O)(=O)N2CCCN(Cc3c[nH]c4ccc(Cl)cc34)CC2)cc1 [CBK063000]	73.6256
CC(=O)c1ccc(-c2ccc(C(=O)NCC3COc4ccccc4O3)c(NCc3cccnc3)n2)s1 (centres unmarked) [CBK076608]	128.038
Cc1nnc(Sc2nc3ccccc3nc2C(F)(F)F)s1 [CBK093774]	106.564
CC(=O)Nc1cccc(NC(=O)c2cc(-c3ccccn3)nc3ccc(Cl)cc23)c1 [CBK267747]	119.512
CN(C)C(=O)c1ccc(-c2cnc(OCC3CCN(C(=O)OC(C)(C)C)CC3)cn2)cc1F [CBK175076]	143.76
CCn1c(=O)n(CC(=O)Nc2ccccc2F)c2cccnc21 [CBK283897]	117.032
CC1Cc2cc(-c3cn4ccccc4n3)ccc2N1S(C)(=O)=O (centres unmarked) [CBK285194]	102.974
CCCc1occc1C(=O)N1CCOCC1C(=O)O (centres unmarked) [CBK304151]	30.7973
CN1CCN(CCOC(=O)N2CCN(c3cccc(C(F)(F)F)c3)CC2)CC1 [CBK115940C]	83.3606
CC(=O)N(c1ccc2oc3c(c2c1)CCCC3)S(=O)(=O)c1ccc(C(=O)O)cc1 [CBK299808]	108.025
Cn1c(=O)[nH]c(=O)c2c1nc(N1CCOCC1)n2CC(O)COc1ccc(I)cc1 (centres unmarked) [CBK262438]	109.697
CC1CCCCN1CC(=O)N(C)C(C)COc1ccc(Cl)cc1 (centres unmarked) [CBK023201]	0.06955
Cc1noc(C)c1NC(=O)c1cccn1C [CBK200304]	120.041
O=C(NC[C@H]1CC[C@H](c2nnc(-c3ccsc3)o2)CC1)C1CCC1 [CBK283363]	96.294
OC(CN1CCN(c2cccc(Cl)c2)CC1)Cn1c2ccccc2c2ccccc21 (centres unmarked) [CBK264333]	89.9054
CN(C)CCCNC(=O)C1CCN(c2cncc(-c3ccc(O)cc3)n2)CC1 [CBK126929T]	117.463
Cc1cnn(CCCNC(=S)Nc2ccc(S(N)(=O)=O)cc2)c1 [CBK266957]	115.98
CCc1cc(NC[C@@H](O)CO)nc(-c2ccc(F)c(Cl)c2)n1 [CBK132880]	50.9295
O=C(CN1CCOCC1)NC1(c2ccccc2)CCCCC1 [CBK059545C]	82.5732
Cc1cccn2cc(CC(=O)OCC(=O)NC(C)(C)C)nc12 [CBK304966]	116.364
CN(C(=O)Cn1c(=O)n(C)c2ncccc21)C1CCCCC1 [CBK283791]	105.617
COc1ccc(S(=O)(=O)N2CCC(C(=O)O)CC2)cc1Cl [CBK267162]	109.805
COc1ccc(S(=O)(=O)N2CCN(C(=S)Nc3ccc(S(N)(=O)=O)cc3)CC2)cc1 [CBK266898]	116.442
CCN(CC)CCn1c2ccccc2c2nc(C)sc21 [CBK266628C]	116.196
CC(OC(=O)C1CCCCC1)c1nc2ccccc2[nH]1 (centres unmarked) [CBK111483]	83.0408
O=C(c1cccc2[nH]ccc12)N1CCN(CCc2ccccc2)CC1 [CBK200203]	95.9229
CC(C)(C)C(C#N)C(Oc1ccc(Cl)cc1)n1cncn1 (centres unmarked) [CBK023570]	32.5751

Structure (SMILES)	% of control remaining
CCn1cnnc1C1CCN(C(=O)c2ccc(C)c(Cl)c2)CC1 [CBK303997]	86.0242
COCCN1C(=O)/C(=C2/C(=O)N(CC(=O)Nc3ccccc3)c3ccccc32)SC1=S [CBK264489]	111.267
CCN(CC)CC(=O)Nc1ccccc1OC [CBK266213C]	102.903
O=C1CC(c2ccccc2)CC(=O)C1=CNCCN1CCOCC1 (centres unmarked) [CBK262522]	93.0461
Cc1nc(NS(=O)(=O)c2cc(Cl)sc2Cl)sc1C(=O)N1CCN(C)CC1 [CBK045818]	92.1847
O=C(COc1ccccc1)NC(=S)Nc1cc(-c2nc3ncccc3o2)ccc1Cl [CBK264380]	116.505
CN(CCCN1CCC(C(=O)NC(c2cccnc2)c2ccc3c(c2)OCO3)CC1)S(C)(=O)=O (centres unmarked) [CBK148505]	103.409
Cc1cc(C)nc(-n2ncc(C#N)c2NC(=O)c2ccccc2)n1 [CBK288135]	91.9828
Cc1cc(CN(C)Cc2cnn(-c3ccc(Cl)cc3)c2)n[nH]1 [CBK281912]	84.5007
CCCSc1nc2cc(C(=O)OC)ccc2c(=O)n1CC1CCCO1 (centres unmarked) [CBK306031]	59.6907
Cc1cnc(NC(=O)C(C)Oc2ccccc2)s1 (centres unmarked) [CBK288250]	102.684
Clc1cc(Nc2ccc3[nH]ccc3c2)n2nccc2n1 [CBK037009]	68.8516
CC(=O)Nc1cccc(NC(=S)Nc2ccc(S(N)(=O)=O)cc2)c1 [CBK267091]	91.4312
CN(C)S(=O)(=O)N1CCN(c2ccc([N+](=O)[O-])c(NCCc3ccccc3)c2)CC1 [CBK266498]	115.405
COc1cccc(C2CC(=O)Nc3n[nH]cc32)c1OC (centres unmarked) [CBK287889]	105.132
CN1CCN(C2CC(=O)N(c3ccc(Oc4ccccc4)cc3)C2=O)CC1 (centres unmarked) [CBK265434]	101.014
O=[N+]([O-])c1ccc(S(=O)(=O)Nc2nnc(C3CCCCC3)s2)cc1 [CBK200049]	121.296
CC(=O)N1CCc2c(c3cccc(Br)c3n2Cc2ccccc2)C1 [CBK024402]	102.25
c1cnc(-c2ccoc2)c(NCCCN2CCOCC2)n1 [CBK036631]	98.7755
Cc1nn(C)c(C)c1-c1ccnc(NCCC2(O)CCN(C)CC2)n1 [CBK307659]	58.9031
CCCCn1c(=O)c(C(=O)Nc2ccccc2S(N)(=O)=O)c(O)c2ccccc21 [CBK262260]	94.9755
Cc1ccc(OCC(=O)Nc2ccc3c(c2)C(=O)Nc2ccccc2O3)cc1 [CBK287660]	122.45
CSc1ccc(-n2ncc(-c3ccc(Cl)cc3)n2)cc1 [CBK112782]	73.0475
O=C(Nc1cc2cccnc2c(Br)n1)Nc1ccc(F)cc1C(F)(F)F [CBK063287]	106.311
CNC(=O)c1c(NC(=O)c2nc(SCc3ccccc3)ncc2Cl)sc2c1CCCC2 [CBK269087]	122.621
O=C(Nc1ccccc1)c1ccc(S(=O)(=O)N2CCC(C(=O)O)CC2)cc1 [CBK267806]	111.273
CN(C)C(=O)C1(c2ccccc2)CCNC1 (centres unmarked) [CBK023394C]	68.9542

Structure (SMILES)	% of control remaining
CC(C)(C)NC(=O)CSc1nnc(Cc2cccc3ccccc23)n1-c1ccccc1 [CBK266039]	106.757
C=C(Br)Cn1c(COc2cccc3ccccc23)nc2ccccc21 [CBK263373]	80.1393
O=C(CN1CCOCC1)Nc1ccc(Br)cc1[N+](=O)[O-] [CBK267314]	90.3282
CC(=O)N1CCN(CCNc2ncnc3sc4c(c23)CCC(C)C4)CC1 (centres unmarked) [CBK304897]	111.362
COc1cc(CN2CCN(c3cc(C)ccc3C)CC2)ccc1OCc1ccccc1 [CBK261898]	96.5154
COCC(=O)N1CCN(C(=O)N2CCOCC2)C[C@@H]1C(=O)OC [CBK289613]	101.723
COc1ccccc1OCC(=O)N1CCC(Cn2cncn2)(C2CCCCC2)CC1 [CBK136797]	97.417
Cc1c(S(=O)(=O)Nc2nnc(C(F)(F)F)s2)sc2ccc(Cl)cc12 [CBK062018]	105.954
CCc1nc2c(N3CCC(n4nc(C)cc4C)C3)ncnc2o1 (centres unmarked) [CBK306785]	22.7247
CN1CCN(C(=O)c2cccc(-n3cccn3)c2)C(c2ccccc2)C1 (centres unmarked) [CBK282013]	105.02
O=C(Nc1cccc(Cl)c1)N1CCCC(c2nc(-c3ccccc3)c3ccccn23)C1 (centres unmarked) [CBK047233]	100.401
O=C1NCCc2c1[nH]c1c(Cl)cccc21 [CBK015762]	87.1886
O=C(CCn1c(-c2ccccc2)c(-c2ccccc2)c2ccccc21)N/N=C/c1ccccc1O [CBK262353]	11.3679
CCC1CN(C(C)=O)CCC1NCc1ccc(OCC(N)=O)cc1 (centres unmarked) [CBK305168]	52.7919
O=S(=O)(c1ccc(Cl)cc1)c1ccc2ccnc(N3CCCNCC3)c2c1 [CBK036416C]	103.115
CC(C)CN(C)CC(=O)NC1(c2ccccc2)CCC1 [CBK067455T]	117.401
COc1ccc(CN2C(=O)CO[C@H]3CN(C(=O)COc4ccccc4)C[C@H]32)cc1 [CBK289262]	91.3475
Cc1ccc(-c2nnc(CN3C(=O)C4(CC(=O)N(Cc5ccccc5)C4=O)c4ccccc43)o2)cc1 (centres unmarked) [CBK075749]	93.8187
Nc1ncc(Br)nc1N[C@@H](CO)c1ccccc1 [CBK074321]	89.5871
CCn1c2cc(C)sc2c2cnn(CC(=O)NC3CC3)c(=O)c21 [CBK284170]	89.2025
CCCN1CC(NS(=O)(=O)c2cc(-n3cccn3)ccc2C)CC1=O (centres unmarked) [CBK306835]	80.766
OC12CCCCC1CN(CC1=Cc3ccccc3OC1)CC2 (centres unmarked) [CBK282954]	75.3299
O=C1CN(Cc2ccc(Cl)cc2)CCO1 [CBK023036C]	37.0832
COC(=O)c1c(NC(=S)NCc2cccnc2)sc(C)c1C [CBK267029]	107.784
CSCCCNC(=O)N1CCN(Cc2ccccc2)CC1 [CBK155623]	82.7176
FC(F)(F)c1cccc(NC(=S)Nc2ccc(Cc3ccncc3)cc2)c1 [CBK267251]	107.551
